Measurements published in paper PMC12203921.
Results are given in words; binding and its absence hold for the method and conditions named. In cells and extracts the contact can be indirect. Some binding calls cover weakened binding; strength is not graded here.

The chains behind the UniProt entries cited, without tags or fusion partners.
UniProt Q9R0L6: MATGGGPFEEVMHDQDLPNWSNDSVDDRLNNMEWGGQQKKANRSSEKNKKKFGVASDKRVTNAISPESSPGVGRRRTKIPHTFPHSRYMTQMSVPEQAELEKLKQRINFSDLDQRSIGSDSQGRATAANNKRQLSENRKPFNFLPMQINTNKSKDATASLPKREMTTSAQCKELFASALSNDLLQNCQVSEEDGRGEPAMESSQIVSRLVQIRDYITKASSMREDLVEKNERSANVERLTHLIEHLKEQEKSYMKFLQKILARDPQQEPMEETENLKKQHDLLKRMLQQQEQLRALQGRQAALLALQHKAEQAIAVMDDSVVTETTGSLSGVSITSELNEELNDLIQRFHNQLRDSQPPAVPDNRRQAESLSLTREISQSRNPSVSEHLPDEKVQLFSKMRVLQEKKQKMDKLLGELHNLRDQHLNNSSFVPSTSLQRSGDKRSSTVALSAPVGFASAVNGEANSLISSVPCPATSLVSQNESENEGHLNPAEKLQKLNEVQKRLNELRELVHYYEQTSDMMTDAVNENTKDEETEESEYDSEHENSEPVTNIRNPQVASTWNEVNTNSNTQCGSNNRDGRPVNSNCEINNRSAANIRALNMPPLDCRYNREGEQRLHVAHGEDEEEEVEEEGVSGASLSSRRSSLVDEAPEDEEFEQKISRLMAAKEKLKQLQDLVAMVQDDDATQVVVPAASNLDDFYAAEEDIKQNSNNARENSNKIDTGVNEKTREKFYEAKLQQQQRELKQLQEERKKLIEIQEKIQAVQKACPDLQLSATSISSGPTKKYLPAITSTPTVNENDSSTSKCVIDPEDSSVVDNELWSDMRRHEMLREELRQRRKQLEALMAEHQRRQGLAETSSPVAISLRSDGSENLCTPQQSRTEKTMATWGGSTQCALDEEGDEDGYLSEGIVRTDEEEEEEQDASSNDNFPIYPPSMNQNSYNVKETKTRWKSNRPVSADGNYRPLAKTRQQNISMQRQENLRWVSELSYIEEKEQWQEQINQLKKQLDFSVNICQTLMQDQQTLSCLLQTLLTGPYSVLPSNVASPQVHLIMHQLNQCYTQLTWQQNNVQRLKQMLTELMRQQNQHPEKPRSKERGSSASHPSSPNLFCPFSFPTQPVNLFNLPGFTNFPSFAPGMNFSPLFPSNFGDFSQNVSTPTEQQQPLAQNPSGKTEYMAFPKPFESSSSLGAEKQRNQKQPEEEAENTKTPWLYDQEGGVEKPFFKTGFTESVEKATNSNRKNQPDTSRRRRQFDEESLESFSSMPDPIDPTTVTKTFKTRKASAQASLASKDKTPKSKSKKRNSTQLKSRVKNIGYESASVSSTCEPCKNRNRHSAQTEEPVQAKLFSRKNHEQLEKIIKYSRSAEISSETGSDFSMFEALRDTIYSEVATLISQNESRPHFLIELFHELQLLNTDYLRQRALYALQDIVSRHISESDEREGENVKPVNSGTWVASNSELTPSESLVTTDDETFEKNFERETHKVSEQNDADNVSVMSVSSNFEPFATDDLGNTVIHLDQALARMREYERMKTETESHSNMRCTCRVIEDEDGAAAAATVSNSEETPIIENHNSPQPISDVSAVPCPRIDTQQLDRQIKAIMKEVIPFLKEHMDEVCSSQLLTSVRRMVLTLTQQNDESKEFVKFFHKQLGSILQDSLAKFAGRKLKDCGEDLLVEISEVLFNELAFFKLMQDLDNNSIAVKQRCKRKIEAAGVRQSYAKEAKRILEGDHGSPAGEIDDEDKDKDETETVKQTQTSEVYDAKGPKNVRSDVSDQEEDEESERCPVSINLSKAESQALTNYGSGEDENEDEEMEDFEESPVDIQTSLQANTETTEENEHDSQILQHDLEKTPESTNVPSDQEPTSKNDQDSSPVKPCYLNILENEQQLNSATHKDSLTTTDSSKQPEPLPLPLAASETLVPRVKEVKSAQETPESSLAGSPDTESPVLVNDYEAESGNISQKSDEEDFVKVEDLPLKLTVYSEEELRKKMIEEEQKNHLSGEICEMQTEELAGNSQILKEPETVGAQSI
UniProt Q8BIL5: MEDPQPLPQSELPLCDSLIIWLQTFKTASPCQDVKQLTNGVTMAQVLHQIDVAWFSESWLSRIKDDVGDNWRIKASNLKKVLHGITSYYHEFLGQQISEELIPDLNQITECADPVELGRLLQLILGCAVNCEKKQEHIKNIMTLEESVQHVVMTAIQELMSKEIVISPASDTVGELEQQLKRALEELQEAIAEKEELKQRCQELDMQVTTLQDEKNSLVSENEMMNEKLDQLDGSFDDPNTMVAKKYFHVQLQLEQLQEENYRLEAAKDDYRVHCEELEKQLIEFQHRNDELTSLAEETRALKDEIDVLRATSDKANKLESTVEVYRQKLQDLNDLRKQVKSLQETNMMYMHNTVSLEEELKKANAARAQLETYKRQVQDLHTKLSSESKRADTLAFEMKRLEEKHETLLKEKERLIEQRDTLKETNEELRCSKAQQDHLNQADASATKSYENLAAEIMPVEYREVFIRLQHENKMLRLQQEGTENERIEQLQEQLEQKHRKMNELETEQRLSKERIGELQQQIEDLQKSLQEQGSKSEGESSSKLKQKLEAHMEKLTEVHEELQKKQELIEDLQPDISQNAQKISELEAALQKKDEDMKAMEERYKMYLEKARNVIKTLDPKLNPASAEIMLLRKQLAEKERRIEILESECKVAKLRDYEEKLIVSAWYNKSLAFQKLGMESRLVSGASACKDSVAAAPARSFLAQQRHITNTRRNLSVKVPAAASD
UniProt Q6VH22: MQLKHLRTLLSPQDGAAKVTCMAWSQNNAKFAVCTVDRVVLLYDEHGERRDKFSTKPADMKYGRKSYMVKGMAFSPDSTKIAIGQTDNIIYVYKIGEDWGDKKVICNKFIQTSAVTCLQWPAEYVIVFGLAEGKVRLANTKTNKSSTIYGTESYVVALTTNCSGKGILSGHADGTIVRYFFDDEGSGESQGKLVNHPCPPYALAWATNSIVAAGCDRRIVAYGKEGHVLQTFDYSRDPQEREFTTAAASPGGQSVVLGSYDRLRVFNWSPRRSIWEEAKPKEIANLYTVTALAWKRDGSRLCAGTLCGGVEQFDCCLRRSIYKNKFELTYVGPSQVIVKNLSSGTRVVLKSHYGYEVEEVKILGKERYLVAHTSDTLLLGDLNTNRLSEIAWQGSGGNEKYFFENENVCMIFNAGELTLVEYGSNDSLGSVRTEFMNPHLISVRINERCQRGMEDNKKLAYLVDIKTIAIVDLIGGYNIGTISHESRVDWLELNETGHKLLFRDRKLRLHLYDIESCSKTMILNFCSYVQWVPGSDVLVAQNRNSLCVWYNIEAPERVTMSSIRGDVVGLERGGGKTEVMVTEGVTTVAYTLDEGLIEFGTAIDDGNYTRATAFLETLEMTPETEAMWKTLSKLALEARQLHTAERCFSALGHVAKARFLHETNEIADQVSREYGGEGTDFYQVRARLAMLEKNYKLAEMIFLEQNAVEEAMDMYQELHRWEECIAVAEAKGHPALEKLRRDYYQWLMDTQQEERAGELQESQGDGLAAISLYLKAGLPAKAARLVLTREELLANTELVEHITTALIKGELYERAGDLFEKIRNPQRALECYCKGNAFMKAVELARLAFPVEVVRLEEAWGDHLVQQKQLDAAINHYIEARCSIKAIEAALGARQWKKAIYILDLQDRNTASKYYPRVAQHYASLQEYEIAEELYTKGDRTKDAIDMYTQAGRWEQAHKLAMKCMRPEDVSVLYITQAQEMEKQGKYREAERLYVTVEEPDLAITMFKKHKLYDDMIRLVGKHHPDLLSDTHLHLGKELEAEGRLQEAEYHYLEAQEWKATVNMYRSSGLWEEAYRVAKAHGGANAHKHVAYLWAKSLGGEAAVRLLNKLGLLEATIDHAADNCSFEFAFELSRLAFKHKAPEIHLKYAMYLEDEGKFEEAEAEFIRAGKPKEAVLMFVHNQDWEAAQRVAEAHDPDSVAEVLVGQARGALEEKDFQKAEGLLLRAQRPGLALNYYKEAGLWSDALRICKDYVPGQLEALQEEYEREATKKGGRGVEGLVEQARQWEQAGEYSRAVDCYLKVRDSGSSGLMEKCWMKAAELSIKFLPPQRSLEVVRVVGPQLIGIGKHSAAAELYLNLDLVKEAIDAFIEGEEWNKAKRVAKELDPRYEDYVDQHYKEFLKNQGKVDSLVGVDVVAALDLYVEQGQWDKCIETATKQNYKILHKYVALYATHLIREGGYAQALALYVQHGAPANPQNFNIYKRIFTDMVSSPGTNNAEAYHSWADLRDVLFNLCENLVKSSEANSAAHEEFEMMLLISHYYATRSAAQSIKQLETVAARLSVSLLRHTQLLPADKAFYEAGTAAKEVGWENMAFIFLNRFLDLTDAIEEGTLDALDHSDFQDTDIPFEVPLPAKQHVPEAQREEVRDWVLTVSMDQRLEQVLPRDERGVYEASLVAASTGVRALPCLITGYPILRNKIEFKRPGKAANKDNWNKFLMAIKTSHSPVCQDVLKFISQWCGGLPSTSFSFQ
UniProt P28741: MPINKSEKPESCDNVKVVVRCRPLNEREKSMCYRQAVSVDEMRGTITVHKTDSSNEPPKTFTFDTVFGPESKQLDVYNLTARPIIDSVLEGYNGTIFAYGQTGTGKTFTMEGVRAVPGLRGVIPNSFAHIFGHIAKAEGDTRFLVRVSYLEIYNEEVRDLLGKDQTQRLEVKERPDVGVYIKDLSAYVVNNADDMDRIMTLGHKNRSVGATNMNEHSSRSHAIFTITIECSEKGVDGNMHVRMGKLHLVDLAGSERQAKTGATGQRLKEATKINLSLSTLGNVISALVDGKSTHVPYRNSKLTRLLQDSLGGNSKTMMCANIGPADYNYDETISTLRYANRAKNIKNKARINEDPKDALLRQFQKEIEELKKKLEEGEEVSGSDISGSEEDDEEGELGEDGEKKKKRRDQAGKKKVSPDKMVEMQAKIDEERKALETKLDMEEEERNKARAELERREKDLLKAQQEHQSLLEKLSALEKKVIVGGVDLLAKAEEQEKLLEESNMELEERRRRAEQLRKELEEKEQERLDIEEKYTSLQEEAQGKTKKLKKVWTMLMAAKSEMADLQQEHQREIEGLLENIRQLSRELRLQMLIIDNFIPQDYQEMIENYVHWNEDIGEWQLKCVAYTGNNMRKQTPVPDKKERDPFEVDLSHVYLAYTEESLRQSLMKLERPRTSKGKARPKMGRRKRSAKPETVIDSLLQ

Key:
[1] = molecular target: T1, coiled-coil domain-containing 13 (CCDC13) (mouse (endogenous in testis)) (UniProt D3YV10); assay: co-IP; endogenous proteins in mouse testis lysate (150 mM NaCl, 20 mM HEPES, 1 mM DTT, 0.5% NP-40, pH 7.3); antibody overnight at 4 °C, protein A/G agarose beads, 4 washes, western blot
T1 sequence: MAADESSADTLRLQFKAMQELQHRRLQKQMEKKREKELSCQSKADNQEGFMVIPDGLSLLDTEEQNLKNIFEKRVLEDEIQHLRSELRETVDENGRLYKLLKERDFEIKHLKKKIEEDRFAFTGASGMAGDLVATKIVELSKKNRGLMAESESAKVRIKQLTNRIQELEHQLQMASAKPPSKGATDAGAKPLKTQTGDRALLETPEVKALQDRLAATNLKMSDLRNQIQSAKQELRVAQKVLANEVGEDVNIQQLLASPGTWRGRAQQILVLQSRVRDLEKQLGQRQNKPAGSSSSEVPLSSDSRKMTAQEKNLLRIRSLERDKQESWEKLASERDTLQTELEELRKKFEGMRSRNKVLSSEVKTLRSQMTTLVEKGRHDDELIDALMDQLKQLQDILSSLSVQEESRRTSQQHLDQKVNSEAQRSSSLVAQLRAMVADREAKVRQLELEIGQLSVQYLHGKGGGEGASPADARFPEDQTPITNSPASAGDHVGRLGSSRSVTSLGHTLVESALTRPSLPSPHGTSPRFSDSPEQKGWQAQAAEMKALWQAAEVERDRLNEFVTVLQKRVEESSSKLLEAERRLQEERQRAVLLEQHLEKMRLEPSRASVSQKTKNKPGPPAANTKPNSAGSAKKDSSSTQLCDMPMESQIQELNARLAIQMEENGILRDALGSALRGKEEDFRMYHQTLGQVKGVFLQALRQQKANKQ

[2] = molecular target: pericentriolar material 1 (PCM1) (mouse (endogenous in testis)) (UniProt Q9R0L6); assay: as above

HOOK1 (from UniProt Q8BIL5 1-728)
binding [1]: binds
binding [2]: no binding

IFT172 (from UniProt Q6VH22 1-1749)
binding [1]: binds
binding [2]: binds

KIF3A (from UniProt P28741 1-701)
binding [1]: binds
binding [2]: binds

B1: MNS1 (protein, UniProt Q61884 1-491)
chain: MATKKRALSFSEKHQKLVDEKFRKSLNIQVMNKLERQAKNQVVQNENDEKVERQRFLRVLQNEQFELDMEEAIQKAEANKMLRDRQLEQEERLANELARLKHESLKDKKMRQQVRENSIELRELEQKLKAAYMNKERAAQIVEKDAMKYEQMKRDAEIERIMMEEHDRLLKEESAKQERRNKERAQYYLDLEKQLEDQERRKQEAYEQLLKEKLMIDEIVRKIYEEDQVERQQKLEKKNAIQKYIEEFQRAQDFWRQKKREEMEEENRKIIEFANIQEQREGERMARVHEIEEKRVQRQNLLMKQLEETLRQRDDLEQVRQELYQEEQAEIIKLKVKEEAELRLRRQREMKQDFEDQMALKELILQAAKEEEETFKKAMLAKFAEDDRIELMNAQKQRMKQLEHKRAVEKLIEERRSQFLADKQRELEELQLQQRRQGCINEIIEEERLRLLKEHAAKLLGYLPKGVFKREDDVDMLGEEFRKAYQKRDGV
binding [1]: binds
binding [2]: binds

B2: IFT74 (protein, UniProt Q8BKE9 1-600)
chain: MASNHKSSAPRPISRGGIGLTGRPPSGIRPPSGNVRVATAMPPTTARPGSRGGPLGTGGVLSSQIKVADRPVTQQGLSGMKTGMKGPQRQILDKSYYLGLLRSKISELTTEINKLQKEIEMYNQENSVYLSYEKRAETLAVEIKDFQGQLADYNMLVDKLNTNTEMEEVMSDYNMLKAQNDRETQSMDVIFTERQAKEKQIRSVEEEVEQEKQAADGIIKNMSPEKQVKYIEMKTTNEKLLQELDTLQQQLDSLNMKKESLETEIAHSQVKQEAVLLYEKLYELESHRDQMIAEDKSMGSPMEERERLLKQVKEDNQEIASMERQLTDIKEKINQFSEEIRQLDMDLEEHQGEMNQKYKELKKREENMDAFIETFEETKNQELERKAQIEASIITLLEHCSRNINRMKQISSITNQELKMMQDDLSFKSTEMQKSQTTARNLTSDSQRLQLDLQKMELLESKMTEEQQSLKNKIKQMTADLETYSDLAALKSSAEEKKKKLHQERTVLSTHRNAFKKIMEKLTSDYDTLKRQLQDNETHAQLTNLERKWQHLEQNNFVMKEFIATKSQESDYQPVIKNVMKQIAEYNKTIMDALHNASRS
binding [1]: binds
binding [2]: binds

B3: IFT81 (protein, UniProt O35594 1-676)
chain: MSDQIKFIVDSLNKEPFKKNYNLITFDSLGPMQLLQVLNDVLAEIDPKQDVDIREEMPEQTAKRMLNLLGILKYKPPGNATDMSTFRQGLVIGSKPVIYPVLHWLLQRSNELKKRAYLARFLIKLEVPSEFLQDETVADTNKQYEELMEAFKTLHKECEQLKTSGFSTAEIRRDISAMEEEKDQLMKRVERLKKRVETVQNHQRMLKIARQLRVEKEREEFLAQQKQEQKNQLFHAVQRLQRVQNQLKSMRHAAADAKPESLMKRLEEEIKFNSYMVTEKFPKELESKKKELHFLQKVVSEPAMGHSDLLELETKVNEVNTEINQLIEKKMMRNEPIEGKLSLYRQQASIISRKKEAKAEELQETKEKLASLEREVLVKTNQTREFDGTEVLKGDEFKRYVSKLRSKSTVFKKKHQIIAEFKAEFGLLQRTEELLKQRQETIQHQLRTIEEKKGISGYSYTQEELERVSALKSEVDEMKGRTLDDMSEMVKKLNSLVSEKKSALAPVIKELRQLRQKCQELTQECDEKKAQYDSCAAGLESNRSKLEQEVRGLREECLQEESKYHYTNCMIKNLEVELRRATDEMKAYVSSDQQEKRKAIREQYTKNITEQENLGKKLREKQKAVRESHGPNMKQAKMWRDLEQLMECKKQCFLKQQSPASIGQVIQEGGEDRLVL
binding [1]: binds
binding [2]: binds

B4: ODF2 (protein, UniProt A3KGV1 1-830)
chain: MSASSSGGSPRFPSCGKNGVTSLTQKKVLRTPCGAPSVTVTKSHKRGMKGDTVNVRRSVRVKTKVPWMPPGKSSARHVGCKWENPPHCLEITPPSSEKLVSVMRLSDLSTEDDDSGHCKMNRYDKKIDSLMNAVGCLKSEVKMQKGERQMAKRFLEERKEELEEVAHELAETEHENTVLRHNIERIKEEKDFTMLQKKHLQQEKECLMSKLVEAEMDGAAAAKQVMALKDTIGKLKTEKQMTCTDINTLTRQKELLLQKLSTFEETNRTLRDLLREQHCKEDSERLMEQQGTLLKRLAEADSEKARLLLLLQDKDKEVEELLQEIQCEKAQAKTASELSKSMESMRGHLQAQLRCKEAENSRLCMQIKNLERSGNQHKAEVEAIMEQLKELKQKGDRDKETLKKAIRAQKERAEKSEEYAEQLHVQLADKDLYVAEALSTLESWRSRYNQVVKDKGDLELEIIVLNDRVTDLVNQQQSLEEKMREDRDSLVERLHRQTAEYSAFKLENERLKASFAPMEDKLNQAHLEVQQLKASVKNYEGMIDNYKSQVMKTRLEADEVAAQLERCDKENKMLKDEMNKEIEAARRQFQSQLADLQQLPDILKITEAKLAECQDQLQGYERKNIDLTAIISDLRSRIEHQGDKLEMAREKHQASQKENKQLSQKVDELERKLEATSAQNVEFLQVIAKREEAIHQAQLRLEEKTRECGSLARQLESAIEDARRQVEQTKEQALSKERAAQSKILDLETQLSRTKTELGQLRRTRDDADRRYQSRLQDLKDRLEQSESTNRSMQNYVQFLKASYANVFGDAPYTSSYLTSSPIRSRSPPA
binding [1]: binds
binding [2]: no binding
